{"source": "PubChem BioAssay (NCI)", "assay_in_all_cases": "DTP human tumour cell line panel, 48 h", "key": {"[1]": {"system": "786-0 renal"}, "[2]": {"system": "SW-620 colon"}, "[3]": {"system": "SF-268 CNS"}, "[4]": {"system": "HCC-2998 colon"}, "[5]": {"system": "U251 CNS"}, "[6]": {"system": "A549 NSCLC"}, "[7]": {"system": "SK-OV-3 ovarian"}, "[8]": {"system": "SNB-75 CNS"}, "[9]": {"system": "HT29 colon"}, "[10]": {"system": "LOX IMVI melanoma"}, "[11]": {"system": "NCI-H460 lung"}, "[12]": {"system": "NCI/ADR-RES ovarian"}, "[13]": {"system": "SK-MEL-5 melanoma"}, "[14]": {"system": "OVCAR-3 ovarian"}, "[15]": {"system": "SK-MEL-2 melanoma"}, "[16]": {"system": "SNB-19 CNS"}, "[17]": {"system": "OVCAR-4 ovarian"}, "[18]": {"system": "SF-539 CNS"}, "[19]": {"system": "RPMI-8226 leukemia"}, "[20]": {"system": "UACC-62 melanoma"}, "[21]": {"system": "TK-10 renal"}, "[22]": {"system": "MCF7 breast"}, "[23]": {"system": "COLO 205 colon"}, "[24]": {"system": "MALME-3M melanoma"}, "[25]": {"system": "EKVX NSCLC"}, "[26]": {"system": "NCI-H23 lung"}, "[27]": {"system": "RXF 393 renal"}, "[28]": {"system": "MOLT-4 leukemia"}, "[29]": {"system": "MDA-MB-231 breast"}}, "note": "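Assay format: 96-well plates, 48-hour exposure. The concentration for 50% growth inhibition is given as GI50.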 A number of entries come with more than one value. This list holds those alone. There may be further records. For some assays here: Results that share an entry repeat one measurement (runs, samples, wells, individuals or studies). Marks in square brackets tell the records apart. A, B and so on number the origins entry by entry.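 TGI is the concentration that stops growth completely.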 For some assays here: Records of one sample usually come from different ranges of test concentrations, not given here; a value can be the end of its range."}
{"compound": "COc1cc2c(cc1O)CCN[C@@]21CS[C@H]2c3c(OC(C)=O)c(C)c4c(c3C(COC1=O)N1C2C2c3c(cc(C)c(OC)c3O)CC([C@@H]1O)N2C)OCO4", "note": "(some centres not stated)", "values": [{"measurement": "TGI", "setting": "[1]", "result": "0.414 nM and > 1 µM"}, {"measurement": "TGI", "setting": "[2]", "result": "0.0137 nM and > 332 nM"}, {"measurement": "TGI", "setting": "[3]", "result": "0.00336 nM, 11 nM, 0.56 nM"}, {"measurement": "TGI", "setting": "[4]", "result": "< 0.001 nM and 2.41 nM"}, {"measurement": "TGI", "setting": "[5]", "result": "0.0116 nM and > 561 nM"}, {"measurement": "TGI", "setting": "[6]", "result": "0.183 nM and > 1 µM"}, {"measurement": "TGI", "setting": "[7]", "result": "8.96 nM and > 1 µM"}, {"measurement": "TGI", "setting": "[8]", "result": "< 0.001 nM and 6.43 nM"}, {"measurement": "TGI", "setting": "[9]", "result": "1.16 nM and > 1 µM"}, {"measurement": "TGI", "setting": "[10]", "result": "0.0124 nM and 1.3 nM"}, {"measurement": "TGI", "setting": "[11]", "result": "0.0117 nM and 8.53 nM"}, {"measurement": "TGI", "setting": "[12]", "result": "58.1 nM and 2.51 nM"}, {"measurement": "TGI", "setting": "[13]", "result": "< 0.001 nM and 3.05 nM"}, {"measurement": "TGI", "setting": "[14]", "result": "0.36 nM and 8.47 nM"}, {"measurement": "TGI", "setting": "[15]", "result": "< 0.001 nM and 3.71 nM"}, {"measurement": "TGI", "setting": "[16]", "result": "1.02 nM and > 1 µM"}, {"measurement": "TGI", "setting": "[17]", "result": "< 0.001 nM and 71.3 nM"}, {"measurement": "TGI", "setting": "[18]", "result": "< 0.001 nM and 7.81 nM"}, {"measurement": "TGI", "setting": "[19]", "result": "< 0.001 nM and 7.84 nM"}, {"measurement": "TGI", "setting": "[20]", "result": "< 0.001 nM and 3.36 nM"}, {"measurement": "TGI", "setting": "[21]", "result": "1.84 nM, 21.3 nM, > 1 µM"}, {"measurement": "TGI", "setting": "[22]", "result": "3.35 nM and > 350 nM"}, {"measurement": "TGI", "setting": "[23]", "result": "< 0.001 nM and 3.38 nM"}, {"measurement": "TGI", "setting": "[24]", "result": "< 0.001 nM and 24.8 nM"}, {"measurement": "TGI", "setting": "[25]", "result": "< 0.001 nM and 5.61 nM"}, {"measurement": "TGI", "setting": "[26]", "result": "< 0.001 nM and 7.61 nM"}, {"measurement": "TGI", "setting": "[27]", "result": "< 0.001 nM and 4.43 nM"}, {"measurement": "TGI", "setting": "[28]", "result": "0.0153 nM and > 1 µM"}]}
{"compound": "CC(=O)OCC1OC(Sc2nc(-c3ccc(C)cc3)c(C#N)c(=O)n2C2OC(COC(C)=O)C(OC(C)=O)C(OC(C)=O)C2OC(C)=O)C(OC(C)=O)C(OC(C)=O)C1OC(C)=O", "note": "(configuration not stated)", "values": [{"measurement": "GI50", "setting": "[4]", "result": "> 100 µM [sample A, 1 test] and 4.76 µM [sample B, 1 test]"}, {"measurement": "GI50", "setting": "[29]", "result": "> 100 µM [sample A, 1 test] and 5.96 µM [sample B, 1 test]"}]}
{"compound": "CCCCCCCCCCCCCCCC[N+](C)(C)C", "values": [{"measurement": "GI50", "setting": "[6]", "result": "1.91 µM [sample A, 1 test] and 185 nM [sample B, mean of 2 tests]"}, {"measurement": "GI50", "setting": "[10]", "result": "1.43 µM [sample A, 1 test] and 86.8 nM [sample B, 1 test]"}]}
